# According to PMC6919601, “Identification of Plasmodium dipeptidyl aminopeptidase allosteric inhibitors by high throughput screening” (PLoS ONE, 2019):
# Where “and” joins values, the source holds several entries; their conditions need not be identical. Equal values may be shown once. Among all 110,000 compounds or so, about 230 (0.21%) showed an effect of 50% or more. The list shows a part of the results.
# Biological target: DPAP1 (Plasmodium falciparum, UniProt Q8IIJ9)
# Experiment: primary screen, percent inhibition; read by cleavage of a fluorogenic dipeptide substrate; higher = more effect of the substance
# Design: species or system P. falciparum D10 trophozoite lysates; single well
# 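Also: 30 min substrate incubation versus DMSO and 10 µM JCP410 controls.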
# DPAP1, sequence (Q8IIJ9 whole entry, looked up): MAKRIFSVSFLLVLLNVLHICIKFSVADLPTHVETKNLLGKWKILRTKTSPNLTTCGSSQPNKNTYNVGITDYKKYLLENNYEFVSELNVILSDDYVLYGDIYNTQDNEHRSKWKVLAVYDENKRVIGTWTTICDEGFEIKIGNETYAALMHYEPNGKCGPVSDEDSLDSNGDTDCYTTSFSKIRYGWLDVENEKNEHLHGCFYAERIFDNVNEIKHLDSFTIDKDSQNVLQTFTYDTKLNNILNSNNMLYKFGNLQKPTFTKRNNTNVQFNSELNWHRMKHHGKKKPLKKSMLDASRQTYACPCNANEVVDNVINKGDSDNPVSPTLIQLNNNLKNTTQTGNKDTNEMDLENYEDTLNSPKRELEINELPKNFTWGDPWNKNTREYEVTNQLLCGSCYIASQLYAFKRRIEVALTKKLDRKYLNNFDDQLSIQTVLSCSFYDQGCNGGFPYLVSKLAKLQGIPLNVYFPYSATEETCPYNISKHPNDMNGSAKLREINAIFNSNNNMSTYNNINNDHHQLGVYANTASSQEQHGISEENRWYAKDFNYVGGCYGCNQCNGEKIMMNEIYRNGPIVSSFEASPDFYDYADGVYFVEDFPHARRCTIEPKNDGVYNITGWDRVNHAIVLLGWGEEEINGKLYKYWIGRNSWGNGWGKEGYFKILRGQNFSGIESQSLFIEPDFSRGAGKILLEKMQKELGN
row,Compound,% Inhibition @ 10 uM
1,Cc1sc2ncnc(SCC(=O)c3ccc(F)cc3)c2c1C,-7.63%
2,O=C(Nc1ccc(-c2nc3ccccc3o2)cc1)c1ccccc1F,-4.21%
3,CCOc1ccc(CC(=O)Nc2ccc(NC(C)=O)cc2)cc1OCC,-1.61%
4,CC(O)CNc1nc2c(c(=O)n(C)c(=O)n2C)n1Cc1c(Cl)cccc1Cl (centres unmarked),0.279%
5,O=S(=O)(NCCC1=CCCCC1)c1ccc(-n2cccn2)cc1,-1.43%
6,CC(NC(=O)c1ccc(-n2cnc3cccnc32)cc1)c1ccc2c(c1)OCCO2 (centres unmarked),-0.416%
7,Cc1cccc(CCNC(=O)Cn2cnc3onc(-c4ccc(F)cc4)c3c2=O)c1,-1.06%
8,COc1ccc(CN2CCN(Cc3ccccc3C)CC2)c(OC)c1,-2.74%
9,CC1=C(C(=O)NCCCSC2CCCCC2)C2(CCCCC2)OC1=O,-3.7%
10,COC(=O)c1ccc(-c2ccco2)n1Cc1ccccc1,1.63%
11,CC(=O)Nc1ccc(-c2ccc(NC(C)=O)c(Cl)c2)cc1Cl,-1.74%
12,C1CCN(C2CCN(C3CC4CCC3C4)CC2)CC1 (centres unmarked),-1.44%
13,c1ccc(-c2nc3c4ccccc4nc(NC4CCCCC4)n3n2)cc1,5.68%
14,CCC(C)NC(=O)CCc1c(C)nc2cc(-c3ccc(Cl)cc3)nn2c1C (centres unmarked),2.93%
15,COc1ccc(C2CC(=O)C3=C(C2)NC(=O)CC3c2cccc(Cl)c2)cc1 (centres unmarked),0.8%
16,CCC1CN(C)CCC1(O)c1ccccc1 (centres unmarked),-11.6%
17,CCOC(=O)C1=CN(C)C=C(C(=O)OCC)C1c1ccc(O)cc1,-1.48%
18,Cc1cc(C)n(-c2nnc(-c3ccccc3)c(-c3ccccc3)n2)n1,-1.33%
19,CC(C)N1C(=O)CCC1C(=O)NCc1ccccc1Cl (centres unmarked),3.66%
20,O=C(COc1cccc2cccnc12)N1CCc2ccccc2C1,-1.81%
21,CCOC(=O)N1CCN(Cc2ccc3ccccc3c2)CC1,1.62%
22,CC(C)C[C@H](NC(=O)c1cc2c(s1)-c1ccccc1CC2)C(=O)NCC#N,-1.82%

row,Compound,% Inhibition @ 10 uM
1,CCOC(=O)C1CCCCN1Cc1ccc(OCc2ccccc2)c(OC)c1 (centres unmarked),0.265%
2,CCOC(=O)c1c(C)c(C(=O)NCc2cccnc2)c(C)n1C,-1.66%
3,CCCCN(C)Cc1c(C)n(C)n(-c2ccccc2)c1=O,-2.02%
4,CC(C)OCCCn1c(=O)c(C#N)cc2c(=O)n3ccccc3nc21,0.913%
5,CC1(C)Cc2c(c(N3CCOCC3)nc3sc4c(NCC5CCCO5)ncnc4c23)CO1 (centres unmarked),4.67%
6,CC(=O)CCc1c(S)nc2c(C)cccc2c1C,1.4%
7,O=C(c1cnn(-c2ccccc2)c1-n1cccc1)N1CCC(N2CCCCC2)CC1,1.8%
8,CCn1c(SCC(=O)c2ccc(Cl)cc2)nc2c1c(=O)n(C)c(=O)n2C,3.91%
9,Cc1ccc2cc(C3CC(c4ccco4)=NN3S(C)(=O)=O)c(Cl)nc2c1 (centres unmarked),-0.587%
10,Cc1nn(C)cc1CNC(=O)c1cc2n(n1)C(C(F)(F)F)CC(c1cccs1)N2 (centres unmarked),6.52%
11,Cc1scc(CN(C)Cc2ccccc2)c1C,-3.91%
12,COc1ccc(C(=O)N(Cc2ccco2)Cc2ccco2)cc1Cl,-2.84%
13,CC(C)N1C(=O)CCC1C(=O)N1CCC2(CC1)OCCO2 (centres unmarked),2.05%
14,CC1CCC(NC(C)CCCC(C)(C)O)CC1 (centres unmarked),1.43%
15,O=C(c1ccc2nc(N3CCCCC3)sc2c1)N1CCN(Cc2ccc3c(c2)OCO3)CC1,-0.637%
16,CCc1nc2ccccc2c(C(=O)NCc2ccccc2)c1C,5.73%
17,Cc1ccc(NS(=O)(=O)c2ccc(NS(=O)(=O)c3ccc4c(c3)OCCO4)cc2)cc1C,-3.58%
18,O=C(O)/C=C/C(=O)Nc1ccc(-c2ccc([N+](=O)[O-])cc2)cc1,2.13%
19,COc1ccccc1N(C)S(=O)(=O)c1ccc(Cl)cc1,-3.38%
20,O=C(NC1CCCC1)c1ccc2nc3[nH]c4ccccc4c3nc2c1,-3.94%
21,CC(C)C(=O)n1nc(-c2cccnc2)nc1NCc1cccs1,2.21%
22,Cc1cc(-c2ccc(NC(=O)c3ccoc3C)c(C)c2)ccc1NC(=O)c1ccoc1C,0.235%

row,Compound,% Inhibition @ 10 uM
1,COC(=O)c1ccc(-c2ccco2)n1CC(=O)NCCc1ccc(Cl)cc1,-2.88%
2,O=C(Nc1cccc(S(=O)(=O)N2CCOCC2)c1)c1ccc(Cl)cc1Cl,14.7%
3,Cc1nc2c(c(C)nn2-c2ccccc2)c(C)c1CCC(=O)NCCN1CCOCC1,-2.45%
4,Cc1cccc(NC(=O)Cn2ncc3c2-c2ccccc2OC3)n1,-0.154%
5,CCn1ncc(C2=NOC(C(=O)Nc3c(C)nn(Cc4ccc(F)cc4)c3C)C2)c1C (centres unmarked),-3.08%
6,Cc1cc(C)nc(SCCN(C)C)n1,-1.22%
7,O=C(NC1(C(F)(F)F)C(=O)Nc2c1c(=O)[nH]c(=O)n2-c1ccc(Cl)cc1)c1cccc(Cl)c1 (centres unmarked),-0.173%
8,CCc1nnc(NC(=O)Cc2coc3cc(C)cc(C)c23)s1,-6.04%
9,Cc1ccccc1-c1noc(CCC(=O)NC(C)C)n1,0.366%
10,Cc1cccc(NC(=O)C(C)Oc2ccccc2)c1C (centres unmarked),3.91%
11,COc1cc2c(cc1OC)C(C)=NC(C)(C)C2,2.22% and 1.83%
12,CN1C(=O)C(C(=O)Nc2ccccc2)c2ccccc21 (centres unmarked),26.3%
13,CC(C)CCSc1nc2c(c(=O)[nH]c(=O)n2C)n1CCc1ccccc1,-7.75%
14,CCCCCCNC(=O)c1cnn2c(C)c(Cc3ccccc3C)c(C)nc12,2.9%
15,CCNC(=O)C1CCN(S(=O)(=O)c2ccc(Cl)cc2)CC1,-0.68%
16,CC(Cc1ccccc1F)NCC1CCCO1 (centres unmarked),-8.75%
17,CC(=O)N1CCN(c2ccc(NCc3ccc(C(C)C)cc3)cc2)CC1,3.89%
18,O=C(COc1ccc(Cl)cc1Cl)Nc1ccccc1Br,2.47%
19,CCC(Cc1ccccc1)NC(=O)CCNS(=O)(=O)c1cc(Br)cnc1N (centres unmarked),-7.32%
20,O=C1/C(=C/c2ccco2)CCC1C1CCCC1 (centres unmarked),13.3%
21,COc1cc(OC)c(OC)cc1CN1CCN(Cc2cc(OC)c(OC)cc2Br)CC1,8.36%
